Data on 57 sequences can be found in PMC6451091.

The other results are listed elsewhere or left out. For part of these data: At the low end of the ranking, values are background and their order means little. For part of these data: The protein was read in a cell extract, so binding may be indirect.

Common to all, as to conditions: 20 mM HEPES pH 7.9, 100 mM NaCl, 1 mM DTT, 0.2 mg/mL BSA, 0.02% Triton X-100, 2% milk, 0.4 mg/mL salmon testes DNA; 1 h; temperature not stated; high values mean tight binding; double strand, one strand shown; sequences stand for … in GCCTAGCAC…GTGCTAGGTCTTGATTCGCTTGACGCTGCTG
For one experiment, the target named is PU.1 (IVT) (UniProt P17947). The experiment can be described thus: protein-binding microarray (PBM).
Experiment [1] deals with PU.1 (endogenous, THP-1 nuclear extract) (UniProt P17947). The experiment can be described thus: nuclear extract protein-binding microarray (nextPBM).
The target in experiment [2] is T1, FLI1 (endogenous, THP-1 nuclear extract) (UniProt Q01543).
T1 sequence: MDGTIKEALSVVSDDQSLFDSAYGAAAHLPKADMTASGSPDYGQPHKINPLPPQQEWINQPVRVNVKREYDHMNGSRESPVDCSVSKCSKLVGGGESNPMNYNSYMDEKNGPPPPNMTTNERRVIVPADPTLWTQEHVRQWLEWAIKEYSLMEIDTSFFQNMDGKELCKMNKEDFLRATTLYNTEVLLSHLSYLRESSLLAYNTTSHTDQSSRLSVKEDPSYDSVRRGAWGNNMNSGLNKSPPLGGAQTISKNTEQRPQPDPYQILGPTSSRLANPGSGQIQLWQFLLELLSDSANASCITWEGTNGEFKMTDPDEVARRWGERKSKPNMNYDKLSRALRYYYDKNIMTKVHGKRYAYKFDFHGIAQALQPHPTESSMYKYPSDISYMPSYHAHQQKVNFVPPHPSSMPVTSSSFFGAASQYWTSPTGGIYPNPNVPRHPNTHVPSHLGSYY
The description is as above.

In the case of AAAAAAAGGAACTGGAAAGC, the binding signal with PU.1 (IVT) is 4.54 z-score; in experiment [1], 4.2 z-score; in experiment [2], 1.64 z-score.
For the sequence GAAATGGGGAAGTGGCCAGA, the values for the binding signal (in the experiment with PU.1 (IVT); in experiment [1]; in experiment [2]) were 6.85 z-score, 7.01 z-score and 2.83 z-score, respectively.
For CAAAAGAGGAAGTGAAGCTG, in that order: 8.37 z-score, 7.06 z-score and 4.32 z-score.
For CAAAAGAGGAAGTTGGCAAA, in that order: 8.72 z-score, 7.41 z-score and 4.62 z-score.
For CAAAAAGGGAAGTAGATGCT, in that order: 6.67 z-score, 6.72 z-score and 2.61 z-score.
On to GAAATAGGGAAGTCAGGAGG, for which the binding signal in the experiment with PU.1 (IVT) was determined as 6.12 z-score; in experiment [1] it was 6.55 z-score; in experiment [2] it was 2.26 z-score.
Taken in the same sequence, the figures for GAAAACAGGAAGTGGGCATT were 7.54 z-score, 7.16 z-score and 5.65 z-score.
Turning to AAAAAGAGGAACTTGGGAAA, the binding signal was 7.58 z-score with PU.1 (IVT), 7.2 z-score in experiment [1] and 3.35 z-score in experiment [2].
Taken in the same sequence, the figures for GAAAAGAGGAAGAGTCTCTG were 4.86 z-score, 5.62 z-score and 2.37 z-score.
Taken in the same sequence, the figures for AGAAAGAGGAAGTTATGTGC were 8.58 z-score, 7.55 z-score and 4.05 z-score.
For AAAAAAAGGAACTGGCTGGA, in that order: 4.08 z-score, 4.19 z-score and 1.5 z-score.
In the case of TCAAGGAGGAAGTGGTAGGC, the binding signal with PU.1 (IVT) is 4.75 z-score; in experiment [1], 5.38 z-score; in experiment [2], 2.88 z-score.
For GAAATGGGGAAGTCCCTGTT, in that order: 6.88 z-score, 6.72 z-score and 2.53 z-score.
Taken in the same sequence, the figures for GCTAGGAGGAAGTGGCAAGA were 4.16 z-score, 4.82 z-score and 2.81 z-score.
Turning to TTGGAAAGGAAGTACTGTGG, the binding signal came to 2.39 z-score in the experiment with PU.1 (IVT), 1.75 z-score in experiment [1] and 2.04 z-score in experiment [2].
For GTGAAGAGGAAGTACAAAGA, in that order: 4.94 z-score, 5.84 z-score and 2.74 z-score.
Taken in the same sequence, the figures for TAAGAGAGGAAGTGACTGAG were 4.76 z-score, 4.74 z-score and 3.12 z-score.
Taken in the same sequence, the figures for CAAAAAGGGAAGTGGATCCT were 6.43 z-score, 6.84 z-score and 3.18 z-score.
Regarding GAAAAAGGGAAGTGGATGCT, the binding signal is 7.27 z-score with PU.1 (IVT), 6.99 z-score in experiment [1] and 3.43 z-score in experiment [2].
Taken in the same sequence, the figures for TCAAGAAGGAAGTGGTCACG were 2.99 z-score, 3.04 z-score and 1.94 z-score.
With GAAAAGCGGAAGTGGTGTGG, the binding signal amounted to 8.61 z-score with PU.1 (IVT), 7.26 z-score in experiment [1] and 5.64 z-score in experiment [2].
For the sequence AGATTGAGGAAGTGAAGTGA, the binding signal with PU.1 (IVT) worked out at 6.27 z-score; in experiment [1], 6.54 z-score; in experiment [2] it was 2.81 z-score.
Turning to TATTTAAGGAAGTGGCAGTC, the values for the binding signal (with PU.1 (IVT); in experiment [1]; in experiment [2]) were 5.3 z-score, 5.31 z-score and 2.47 z-score, respectively.
For CTGTAGGGGAAGTGCCTTGT, in that order: 3.75 z-score, 3.62 z-score and 1.92 z-score.
As to GAAAGGGGGAAGTGCAGCTG, the binding signal with PU.1 (IVT) amounted to 5.05 z-score; in experiment [1], 5.4 z-score; in experiment [2] it was 2.25 z-score.
In the case of GAAAACTGGAAGTCCCATAG, the binding signal in the experiment with PU.1 (IVT) stood at 1.91 z-score; in experiment [1] it was 1.92 z-score; in experiment [2], 1.73 z-score.
Taken in the same sequence, the figures for GAAAACAGGAAGTCCCGTAG were 7.26 z-score, 7.19 z-score and 4.52 z-score.
For CAGATGGGGAAGTGAGAAAG, in that order: 4.71 z-score, 5.31 z-score and 1.94 z-score.
For AAATTGGGGAAGTGAGCCTG, in that order: 6.33 z-score, 6.56 z-score and 3.1 z-score.
Turning to TGCAACAGGAAGTGGGGTGT, the results for the binding signal (with PU.1 (IVT); in experiment [1]; in experiment [2]) were 4.12 z-score, 4.55 z-score and 5.34 z-score, respectively.
For AAAAAAAGGAACTGGCTAGC, in that order: 4.5 z-score, 3.89 z-score and 1.58 z-score.
For TGAAGGAGGAAGTGAGTGGG, in that order: 5.14 z-score, 5.85 z-score and 2.99 z-score.
For TCAAGGAGGAAGTGGTCAGT, in that order: 4.99 z-score, 5.41 z-score and 3.1 z-score.
For AAAAGGAGGAAGTGGGGGGA, the binding signal was 6.01 z-score with PU.1 (IVT), 6.4 z-score in experiment [1] and 2.96 z-score in experiment [2].
For GGGATGAGGAAGTGATGAGC, the binding signal amounted to 6.14 z-score in the experiment with PU.1 (IVT), 6.22 z-score in experiment [1] and 2.6 z-score in experiment [2].
For AATAAAGGGAAGTGTGGTGA, the binding signal with PU.1 (IVT) amounted to 5.01 z-score; in experiment [1] it was 5 z-score; in experiment [2], 1.83 z-score.
Taken in the same sequence, the figures for GAAAAGAGGAAGTCGAATTA were 8.06 z-score, 7.25 z-score and 3.89 z-score.
For CAAATGAGGAAGTGATGCGG, in that order: 8.08 z-score, 7.2 z-score and 4.15 z-score.
With TCAGGGAGGAACTGAAATGG, the binding signal was 2.21 z-score with PU.1 (IVT), 2.42 z-score in experiment [1] and 1.02 z-score in experiment [2].
For GTGGTGAGGAACTGAGAGTG, in that order: 1.18 z-score, 1.48 z-score and 0.538 z-score.
Taken in the same sequence, the figures for GAGGAGGGGAACTGAGAGCA were 1.39 z-score, 1.44 z-score and 0.249 z-score.
Taken in the same sequence, the figures for AAATAGAGGAAGTGGAATGG were 7.2 z-score, 7.01 z-score and 3.53 z-score.
Consider TGAAAGAGGAAGTGCACCCA, for which the binding signal with PU.1 (IVT) was found to be 7.26 z-score; in experiment [1], 7.33 z-score; in experiment [2], 3.53 z-score.
Taken in the same sequence, the figures for GTGAGAAGGAAGTGAATGCA were 2.84 z-score, 2.95 z-score and 2.26 z-score.
For AGAATAGGGAAGTGACTTAA, in that order: 7.27 z-score, 7.16 z-score and 2.81 z-score.
For AAAAAAAGGAAATGAAAATG, in that order: 3.71 z-score, 2.92 z-score and 2.35 z-score.
For GAAAAGGGGAAGTAGATGAG, the binding signal in the experiment with PU.1 (IVT) was 8.06 z-score; in experiment [1], 7.2 z-score; in experiment [2], 3.86 z-score.
Turning to AAAAAACGGAACTGCAGAAG, the figures for the binding signal (with PU.1 (IVT); in experiment [1]; in experiment [2]) were 4.89 z-score, 4.87 z-score and 2.02 z-score, respectively.
For TGAAAGAGGAAGTACAACCA, in that order: 7.66 z-score, 7.23 z-score and 4.37 z-score.
For CAGAGAAGGAAGTGTGGTCT, in that order: 2.76 z-score, 3.1 z-score and 1.98 z-score.
For CTAAAGGGGAAGTGCTAAAC, in that order: 6.12 z-score, 6.57 z-score and 2.81 z-score.
Take GCCGGGAGGAAGTGCCCGAC: the binding signal is 3.47 z-score with PU.1 (IVT), 3.65 z-score in experiment [1] and 2.94 z-score in experiment [2].
Take GAAATGAGGAAGTGTAAACA: the binding signal in the experiment with PU.1 (IVT) is 7.49 z-score; in experiment [1] it was 7.1 z-score; in experiment [2] it was 3.19 z-score.
Taken in the same sequence, the figures for TTGAGGAGGAAGTGGGGTCT were 3.8 z-score, 4.2 z-score and 2.78 z-score.
Taken in the same sequence, the figures for GGGAAGAGGAAGTAGATGGA were 6.08 z-score, 6.45 z-score and 3.33 z-score.
For ACAAACAGGAAGTGTCCTGT, in that order: 5.9 z-score, 6.24 z-score and 5.3 z-score.
CAATAGGGGAAGTGGGTTGA: the binding signal with PU.1 (IVT) is 5.85 z-score; in experiment [1] it was 6.32 z-score; in experiment [2], 2.38 z-score.
